# Data published in the supplement of paper PMC11417369.
# This is one part of the list.
# System: PfAP2-HC AP2 domain (GST-tagged)
# Assay: gcPBM binding intensity (ln(normalized median fluorescence intensity)); higher = stronger DNA binding
# In short: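 An Agilent 4 × 180k array of primer-extended double-stranded 36-bp intergenic genomic probes, with negative controls, was incubated for 1 h with GST-tagged P. falciparum DNA-binding domains expressed in E. coli. Alexa488 anti-GST antibody detected bound protein, scanned at 488 nm. Binding intensity is the highest Masliner-normalised natural-log median intensity across replicate spots of either probe orientation.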
row,Sequence,gcPBM binding intensity (ln)
1,AAAAAAAAGAAAGAAAGTACAAATTATAAAATGAAC [XGTACX_site860],9.79
2,TAAATTAAAAAACACACACACAAAAAAAAAAAAAAA [CACACA_site2263],11.2
3,ATTTCTAAATGTTGGTGTACGTTTTTTTATAACCTT [XGTACX_site1752],9.93
4,GGAAAACACAAAAACTGTACATTTATTCAACATATA [XGTACX_site5831],9.71
5,TATATACATATATACACACACATATATATATATATA [CACACA_site2805],10.1
6,TTGATATTATTGTATAAACATAATAGAGATAAAGAG [TGCATGCA_negctrl_site455],9.82
7,CAGGTGCACTATATTACACACGCTTCTTTTTTTTTA [CACACA_site2069],9.94
8,TACAAAAAAATAAATAATAAAAAAAAATATATATAA [XGTACX_negctrl_site344],9.59
9,TGAAGGATATATTCCGTGCACATATAAATATATACA,9.58
10,AACATGTTAACTAAATGTACACACCTATGTTGATGT [XGTACX_site3777],9.93
11,TTCTTTATTTTTTCTACACACATTATGTATTCAAAG [CACACA_site3527],9.98
12,TGAAAGAACCTGATTACACACATAAGTTATAAATAT [CACACA_site6165],9.87
13,TGAAAGAATGTTAATAGTACACACAATTATTATATA [XGTACX_site7936],9.79
14,TAAGAACTATTCAGTAGTACCTATATGGATTACTAA [XGTACX_site4278],9.46
15,ATTGATATTGTATAATGTACAGGAAAAAAAAAAAAA [XGTACX_site526],9.6
16,AAATAAAGATATATATATATATATATATATAATTTT [CACACA_negctrl_site30],9.75
17,AAAATGTGCATATTTGCACACTTCAATATATATATA [CACACA_site1791],9.89
18,AAATATTTTGCATACACATGCAAATATTTTTTACAT [TGCATGCA_site554],9.59
19,AATATAAAAAGGCACACACACAAAAAAAAAAAAAAA [CACACA_site896],10.3
20,AATCTCAGAATATACTGTACTTTAAGAAAAAAAAAA [XGTACX_site110],9.26
21,AATATATATTTGTGTACACATTATATATATATATAT [CACACA_site6103],9.8
22,AAAATTTAAATAGGAAGTACGTTCACTAAGAAAATA [XGTACX_site6546],9.75
23,ATAATTTAAAAACATTGTACATTAATATATATGTAT [XGTACX_site8970],9.65

row,Sequence,gcPBM binding intensity (ln)
1,AGGATATGCGGACACACACACATATATATATATATA [CACACA_site5247],11
2,ATAATAACTGATAAATGTACATATAAATTTTATGAT [XGTACX_site195],9.8
3,TTTTATATTTTAAGAGTGCATTTTATATCTTTTTCT,9.57
4,GAAAATATTAAATGAAGTACAATATTTATGTTACTT [XGTACX_site8737],9.48
5,TTTATATTTCTTCATCGTACACATAAAAAAAAAAAA [XGTACX_site3244],9.24
6,ATACTCACGAAACACACACACAATATATATATATAT [CACACA_site4136],10.1
7,CATTAAATATATAAATGTACAAATATATTTTTCAAA [XGTACX_site4429],9.38
8,TTGTTCATATTTTTTATTGTGTTAATATTTATAAAA [GTGCAC_negctrl_site423],9.51
9,TTAATGTAGAGAAAATGTACATTTTATTAAAACAAT [XGTACX_site6376],9.77
10,CCTATTTATAAATACACACACATATATAAATAAATA [CACACA_site5629],10.1
11,AAAAAACTATTATGTGCATGCACAAGTCAGGTAAAT [TGCATGCA_site791],9.93
12,AAAAAGAAATCCAATACACACCTTCAAAATGGGTAT [CACACA_site4978],9.81
13,TATTTATAGATATATACACACATATTTATATTTATA [CACACA_site6441],9.78
14,TTTTTTATTTTTGCGTGTACATAATAATGAATCTTC [XGTACX_site8077],9.56
15,GAAATTTCCCATATTACACACATACTATGATATATA [CACACA_site5987],10
16,TTTTAAATATATGTGCTATTATATTAAGAGATGTAA [GTGCAC_negctrl_site560],9.29
17,ATCTATAAATTTCCACGTACATATATATATATATAT [XGTACX_site4502],9.83
18,CCTCTTTTTATTCTCACACACGTTTATATATAAAGT [CACACA_site4992],10.1
19,TTATAAATGTATTTATGTACATATAAATATATATAA [XGTACX_site2970],9.36
20,AAAAGAAAATAAGAAACACACAAAAATATATAAAAA [CACACA_site3697],9.99
21,TTCTTTGCTTTTCAAACACACAAAAGTTATTATATT [CACACA_site521],9.89
22,ATATAAATCAAAAACGCACACATAAATATTTATATA [CACACA_site2442],9.95
23,ATAAAAGAATAAATAAAACACATATATATATATATA [XGTACX_negctrl_site31],9.47

row,Sequence,gcPBM binding intensity (ln)
1,TTTTTTTTTTTTTTGGTGCACATAGAAATTCTAAAA [GTGCAC_site9809],9.22
2,GCACATTTTTTTATCACACATATAATTACAATATAA [CACACA_site5585],9.75
3,TACGTATGCCTGTGATGTACATATATATATACATAC [XGTACX_site4728],9.9
4,TTTCGGTTTTTTTTTATTTTTTTTTTTTTATTATTT [CACACA_negctrl_site335],9.65
5,AAAAGATGCGCATACACACAGATGAATAACAAAAAA [CACACA_site6865],10.1
6,ATAATATAATTTTGCAGTACCCAAAAAACAAAATAA [XGTACX_site4827],9.62
7,AATATGATATATATATGTACATATATATAATATAAT [XGTACX_site3072],9.68
8,AAAGTATAATAATACACACACTTTAAAAGTTAAATG [CACACA_site7550],10.4
9,ATATAGGTAAAAAGTATACACACGTTGACACATTCT [CACACA_site1199],9.88
10,TCATTATATCATGGTAGTACTCATTAATAATACGTA [XGTACX_site8701],9.51
11,AATATTATTTAGGAGCGTACGTTTTATTTACATATT [XGTACX_site5188],9.78
12,TATATATTTTTTAAACCACACACAATATAGAGTATA [CACACA_site8106],9.9
13,GTTAATAAAAATATATGTACATAATTATTATGAAAA [XGTACX_site3030],9.63
14,GGCATAAATATATGCACACACAAAAAAAAAAAAAAA [CACACA_site59],9.85
15,TTTTTTTTTTTAAAAAGTACACAATTAATTAATATA [XGTACX_site8494],9.28
16,ATATTGTTTTATATAGAACACACATAAAAATATATA [CACACA_site8314],9.75
17,TTATTGAAAAAAGAACAAAAAAAAAAAGAAAAATTA [XGTACX_negctrl_site438],9.23
18,TATAAACATTATAAATGTACAAATATATATATATAT [XGTACX_site3218],9.73
19,ATATATATATATATATGTACTTATTTGAATACTAAA [XGTACX_site2330],9.57
20,AAAATAAGAAATAGATGTACTTATAAATAAATACAA [XGTACX_site4441],9.64
21,TGACTATGTATATTTAGTACATAAAATCAATAATAT [XGTACX_site4082],9.55
22,AAGGGTTGCCTGTGTAGTACATATATATATATATAT [XGTACX_site8555],9.96
23,TCATTCATAAAAATAACACACAAAAAAAAAAAAAAA [CACACA_site1800],9.62

row,Sequence,gcPBM binding intensity (ln)
1,AAATTATATTATTGAACACACGTTTGGTAATGTTTT [CACACA_site5469],9.71
2,AAATATAAGAAAAAGGTGCTTTTTTTTTTTTTTTTT [GTGCAC_site9700],9.55
3,AGGGAAAAAAAAAAAGTGCATTTGTATTAAATGAAT,9.49
4,GTAAACAAAATATTTTGTACATATTTTATATTATTT [XGTACX_site7837],9.71
5,GGACATTTTTATAAGGTGCACGGTTTTGATATTACT [GTGCAC_site9892],9.67
6,ATAATGATATATAGTACACACAAAAATGGAAGTAAA [CACACA_site7541],10.1
7,AACCACATACATATAACACACATATACAATATATAT [CACACA_site8607],10.2
8,AATTTGATAATATCATGTACATGAAAGAATTCATGA [XGTACX_site8463],9.44
9,GTTAAAAGAAAAATATGTACATAAAAAAATTAGAAA [XGTACX_site578],9.75
10,CTCTTGTTTCCATATAGTACGTAATAATATATACAA [XGTACX_site2428],9.55
11,AAGATGGTAAAGAATTGTACGCGCATATATATATTT [XGTACX_site3904],9.93
12,TTTTCAATTAAAAAAAAATTATATTTTATTATTACA [CACACA_negctrl_site142],9.32
13,TATATATATATATGATGTACACATTTTATTATTTGT [XGTACX_site1147],10.1
14,TACATAAATTAAAACACACACACACCCAAAAAAAAA [CACACA_site2261],10.5
15,AAAAAATAAAAAGATACACACATATGTATAATATAC [CACACA_site1496],10
16,GTGTATATTATTTTATCACACATGTACATATGTTAA [CACACA_site5473],9.79
17,AATAAAAAAATATGAAATTATGACATATAGCATTTG [TGCATGCA_negctrl_site160],9.65
18,TTTTTTGTTAAGTTGGTGCAAACAATAGTTATTGAC,9.5
19,TATATCTACTACACACGTACACAAAATAAGATACCT [XGTACX_site7886],10.1
20,TGTAGTCTGGAGAAGAGTACATAGTATCTGGTAGCT [XGTACX_site2029],9.58
